# Laboratory results as given in the supplement of paper PMC7826260.
# Some of the results follow. One pool of 16,384 single-stranded DNAs met each Rep nickase domain in vitro for 1 h at 37 °C with 3 µM enzyme; only the middle of the 90-letter strands is printed. A value is the log2 ratio of uncut reads to the pool without enzyme; strong cutting gives strongly negative numbers. There is no active / inactive call. The scaling is to total reads; values above 0 arise when much of the pool is cut.
# Tests used:
# Test in all cases: uncleaved DNA left, log2 of reads against the no-enzyme library (log2 ratio); higher = less cleavage (more negative = more Rep cleavage of the k-mer); sequences stand for … in CTCGTCCG…ACCGGAGA
# [1] = test system: T1, Rep nickase domain of Muscovy duck circovirus
# T1 sequence (residues 1-111 of Rep, tag left off): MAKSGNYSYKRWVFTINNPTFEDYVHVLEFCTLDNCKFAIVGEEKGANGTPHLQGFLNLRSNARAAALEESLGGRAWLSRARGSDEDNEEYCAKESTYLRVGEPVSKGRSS
# Procedure: (§1)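 A pool of 90-nt single-stranded DNAs with seven random bases just before the constant AC of the nick site (name = the seven bases) was cut by 3 µM recombinant His6-SUMO-tagged Rep nickase domain (300 nM DNA, 50 mM HEPES pH 8.0, 50 mM NaCl, 1 mM MnCl2, 1 h, 37 °C, three replicates). Uncut DNA was amplified and sequenced.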
# [2] = test system: T2, Rep nickase domain of banana bunchy top virus
# T2 sequence (residues 1-94 of Rep, tag left off): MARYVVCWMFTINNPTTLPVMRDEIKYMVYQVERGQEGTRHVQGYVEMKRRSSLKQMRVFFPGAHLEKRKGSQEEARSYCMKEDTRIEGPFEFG
# Procedure: as §1
# [3] = test system: T3, Rep nickase domain of cabbage leaf curl virus
# T3 sequence (residues 1-116 of Rep, tag left off): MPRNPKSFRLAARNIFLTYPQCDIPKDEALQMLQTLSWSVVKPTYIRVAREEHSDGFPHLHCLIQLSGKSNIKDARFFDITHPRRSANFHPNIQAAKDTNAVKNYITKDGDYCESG
# Procedure: as §1
# [4] = test system: T4, Rep nickase domain of chickpea chlorotic dwarf virus
# T4 sequence (residues 1-124 of Rep, tag left off): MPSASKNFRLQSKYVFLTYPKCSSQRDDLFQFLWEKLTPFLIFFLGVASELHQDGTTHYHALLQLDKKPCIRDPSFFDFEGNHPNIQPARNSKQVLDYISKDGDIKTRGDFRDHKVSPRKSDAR
# Procedure: as §1
# [5] = test system: T5, Rep nickase domain of faba bean necrotic yellows virus
# T5 sequence (residues 1-98 of Rep, tag left off): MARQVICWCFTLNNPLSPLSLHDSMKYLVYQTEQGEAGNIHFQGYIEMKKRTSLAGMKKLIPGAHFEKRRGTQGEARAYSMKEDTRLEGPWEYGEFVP
# Procedure: as §1
# [6] = test system: T6, Rep nickase domain of maize striate mosaic virus
# T6 sequence (residues 1-117 of Rep, tag left off): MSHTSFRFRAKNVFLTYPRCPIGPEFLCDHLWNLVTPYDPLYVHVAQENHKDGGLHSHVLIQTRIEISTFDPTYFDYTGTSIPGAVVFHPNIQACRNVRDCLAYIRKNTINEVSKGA
# Procedure: as §1
# [7] = test system: T7, Rep nickase domain of porcine circovirus 2
# T7 sequence (residues 2-116 of Rep, tag left off): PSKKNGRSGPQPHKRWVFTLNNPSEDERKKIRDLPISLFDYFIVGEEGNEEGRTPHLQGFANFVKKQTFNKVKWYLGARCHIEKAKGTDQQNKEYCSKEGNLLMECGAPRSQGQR
# Procedure: as §1
# [8] = test system: T8, Rep nickase domain of tomato yellow leaf curl virus
# T8 sequence (residues 1-136 of Rep, tag left off): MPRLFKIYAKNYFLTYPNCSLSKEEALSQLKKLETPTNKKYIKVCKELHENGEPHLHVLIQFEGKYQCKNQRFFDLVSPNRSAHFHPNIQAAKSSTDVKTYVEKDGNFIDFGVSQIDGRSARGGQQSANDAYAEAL
# Procedure: as §1
# [9] = test system: T9, Rep nickase domain of wheat dwarf virus
# T9 sequence (residues 1-137 of Rep, tag left off): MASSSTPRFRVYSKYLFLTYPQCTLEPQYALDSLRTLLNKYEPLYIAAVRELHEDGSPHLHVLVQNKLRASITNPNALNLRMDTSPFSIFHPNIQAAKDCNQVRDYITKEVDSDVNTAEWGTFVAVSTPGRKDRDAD
# Procedure: as §1
Sequence,uncleaved DNA left (log2) [1],uncleaved DNA left (log2) [2],uncleaved DNA left (log2) [3],uncleaved DNA left (log2) [4],uncleaved DNA left (log2) [5],uncleaved DNA left (log2) [6],uncleaved DNA left (log2) [7],uncleaved DNA left (log2) [8],uncleaved DNA left (log2) [9]
GATCTCC,-0.0101,0.0758,0.00738,0.0489,0.0443,1.28,0.137,0.0632,0.0753
CAGTTTA,-0.221,-0.419,-0.109,-0.244,-0.746,0.0986,-2.43,-0.159,-0.169
ACCCGGC,0.00544,-0.0491,-0.268,-0.0758,0.113,-0.762,0.102,0.0453,-0.0452
AGACAGA,0.015,0.0903,0.628,1.3,0.053,1.44,0.102,0.0351,0.0842
CAACGTC,-0.0322,-0.116,-0.204,-0.949,-0.0301,-0.895,-0.0866,-0.166,-0.183
ACTATTA,0.0812,0.236,-0.146,-1.37,0.122,-0.456,0.111,0.104,0.199
GGAGTGG,0.163,-0.0368,0.306,0.75,0.0183,0.616,0.185,0.0378,0.127
CTATTTG,0.0379,0.0522,-0.727,-0.534,0.0554,-1.07,0.143,0.0665,-0.0632
ATACACA,-0.0708,-0.0556,-0.138,-0.913,0.011,-0.51,0.0491,0.0122,0.00976
CAAGCCG,0.0495,0.0154,-0.717,-0.468,0.0363,-0.89,0.099,-0.044,-0.132
CCTATAC,-0.06,-0.05,-0.0143,-0.745,-0.00315,-0.88,-0.0329,-0.0908,0.0187
AATATCT,-0.244,-0.813,-1.97,-2.97,-0.00535,-0.97,-3.77,0.0187,-0.201
GCTAGAG,0.166,0.116,-0.293,-0.222,0.0434,-0.762,0.235,0.22,-0.0525
GGTGCGA,-0.0755,-0.0887,-0.292,0.114,-0.101,-0.272,0.00174,-0.0938,-0.167
GACGTAG,0.12,-0.104,-0.0491,0.11,-0.0921,-0.223,0.157,-0.0264,-0.0296
TCGCCCT,-0.0686,-0.012,-0.11,-1.5,-0.121,-0.28,-0.26,-0.0289,-0.139
CCCGTTC,-0.0161,-0.188,0.193,0.0583,-0.0984,0.164,-0.204,-0.168,-0.223
AAGTAGC,0.228,0.077,-0.277,-0.361,0.154,-1,-0.323,0.202,0.243
AGTTGGC,0.0648,0.0163,-0.22,-0.225,0.0337,-0.92,0.142,-0.0543,-0.0214
TTCCATA,0.0634,0.266,0.184,-0.485,0.114,0.199,0.0508,0.322,0.114

Sequence,uncleaved DNA left (log2) [1],uncleaved DNA left (log2) [2],uncleaved DNA left (log2) [3],uncleaved DNA left (log2) [4],uncleaved DNA left (log2) [5],uncleaved DNA left (log2) [6],uncleaved DNA left (log2) [7],uncleaved DNA left (log2) [8],uncleaved DNA left (log2) [9]
AACGAGT,0.107,0.0953,0.0366,0.00334,0.113,0.157,0.029,-0.0066,0.0886
GACGAGC,0.251,0.163,0.483,1.29,0.228,0.888,0.23,0.225,0.292
TTACGGG,-0.108,-0.19,0.0475,-0.263,-0.0924,-0.0759,-0.0281,-0.209,-0.195
CAGATAC,0.0773,-0.124,-0.219,-0.361,-0.0689,-0.781,0.0281,-0.0883,-0.0132
TCATCGG,0.0814,0.0328,0.516,1.46,-0.113,1.97,0.137,-0.0923,-0.00145
CGAAATC,-0.0406,-0.02,-0.0613,-0.106,-0.00536,-0.624,-0.0373,-0.000313,0.0189
CCCTGAT,-0.237,-0.135,0.0889,-0.0595,-0.00314,0.27,-1.85,-0.181,-0.0981
GTCCCGA,0.0455,0.0353,0.304,0.742,-0.0351,1.32,0.167,-0.0233,0.0285
AGGTATT,-3.31,-1.89,-1.26,-1.74,-2.45,0.973,-3.9,0.034,-0.567
GCGTCCG,-0.155,-0.0519,-0.701,-0.492,-0.0955,-0.718,0.0508,-0.0699,-0.149
AATGTAG,0.0766,-0.016,-0.766,-0.0905,0.104,-1.03,0.183,0.0496,-0.0449
GAGGTAG,0.146,0.176,-0.0502,-0.0484,0.127,-0.481,0.244,0.219,0.0224
CAGCGTC,-0.115,-0.0571,-0.483,-0.712,-0.108,-0.892,0.0382,-0.0483,-0.131
CGTTCTG,-0.133,-0.2,-0.155,0.375,-0.0237,1.12,-0.122,-0.084,-0.00508
CCGCTAG,0.172,0.143,-0.627,-0.208,0.0642,-0.944,0.136,0.164,0.00237
CATTCCA,-0.503,-0.846,-0.0458,-1.9,0.08,-0.378,-0.7,0.139,0.0203
GTTGAAC,-0.00175,0.105,0.307,0.901,0.0324,1.56,0.108,0.208,0.105
CACACGT,0.0933,-0.0772,-0.171,-1.56,0.0788,-0.783,0.0522,-0.137,-0.113
TTCCCGC,0.0526,-0.0176,-0.234,-0.685,-0.0376,-0.82,-0.0066,-0.0139,-0.0633
CCCCCAC,-0.0478,-0.0645,0.167,-0.49,-0.0811,-0.652,0.0486,-0.128,-0.116

Sequence,uncleaved DNA left (log2) [1],uncleaved DNA left (log2) [2],uncleaved DNA left (log2) [3],uncleaved DNA left (log2) [4],uncleaved DNA left (log2) [5],uncleaved DNA left (log2) [6],uncleaved DNA left (log2) [7],uncleaved DNA left (log2) [8],uncleaved DNA left (log2) [9]
TGGTGTC,0.000456,-0.165,0.213,0.462,-0.0946,0.66,0.0499,-0.148,-0.0958
AGTCAGG,0.0602,-0.0155,0.17,0.872,-0.0688,0.449,0.0576,-0.123,-0.103
GAGAAGT,0.124,0.0224,0.332,0.609,-0.0247,0.611,-2.29,0.116,0.109
ATCGCTC,-0.127,-0.0722,-0.0818,-0.463,-0.0512,-0.923,-0.0258,-0.0214,-0.0816
GCCCCCC,-0.00232,0.0665,0.194,0.47,-0.0949,0.51,-0.241,-0.00925,0.0984
GGCCTCC,-0.025,-0.0623,0.239,0.58,-0.00773,1.03,-0.0669,0.0574,0.0376
AACAAAC,-0.0271,0.0135,-0.16,-0.622,0.0357,-0.879,0.00881,-0.0502,-0.038
ATTTGTG,-0.0226,-0.0194,-0.598,0.594,0.0713,-0.522,0.236,0.0661,-0.104
GGCTCCG,0.0569,-0.0383,0.034,0.16,0.00166,-0.00954,0.0849,-0.0752,0.045
CATATTC,0.0785,0.0337,-0.0892,-0.2,0.0258,-0.832,0.0992,0.0739,0.0482
CGGATAT,-0.0283,-0.0144,0.719,1.86,0.0392,2.07,0.177,-0.00635,0.0868
TTAGGGG,0.0431,-0.119,0.336,0.604,-0.0532,0.46,0.111,-0.0741,-0.0709
CATTCGC,0.0413,-0.0602,-0.816,-0.459,0.0386,-1.11,0.129,0.0882,-0.052
CGGCAAC,0.0183,-0.0374,0.0958,0.225,-0.0191,0.467,0.0316,-0.042,0.062
ACGGTCA,-0.0279,-0.0756,-0.115,-0.766,0.0157,-0.333,-0.104,-0.0204,-0.1
CAGGCGC,-0.186,-0.0717,-0.812,-0.68,-0.0333,-0.771,0.0723,-0.0565,-0.233
GTACGAT,0.0694,0.0578,0.28,0.63,0.0207,1.63,0.216,0.182,0.0626
TTACTTG,0.106,0.00909,-0.409,-2.05,0.0292,-0.787,0.00764,-0.0414,-0.0527
GTCAGGG,0.103,0.143,0.313,0.848,0.0727,1.35,0.241,0.0668,0.191
AACCGTT,-0.0802,-0.166,-0.425,-2.22,-0.0587,-0.804,-3,-0.124,-0.203
